Measured values: PubChem BioAssay AID488969 (Vanderbilt High Throughput Screening Facility, 2010)
In all, about 110,000 compounds were measured (“z-score”: median about -0.1, highest 2% from about 2 on). This is one part of the list. Activity calls are given as the source filed them.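 The calls were made as follows: active = z-score in the third read window above 3 or below -3; inactive = the rest.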

molecular target: Metabotropic glutamate receptor 8 (Rattus norvegicus) (UniProt P70579); experiment: mGluR8 Gi/Go-coupled signaling modulation – cell-based, rat, thallium flux, HTS, primary screen (AID 488969); details: HEK293 rat mGluR8, GIRK (G protein-gated inwardly rectifying potassium channel) thallium flux, FluoZin2; at 10 µM; stronger effect = higher value; submaximal glutamate (EC20) added with thallium
UniProt P70579, sequence (P70579 whole entry, looked up): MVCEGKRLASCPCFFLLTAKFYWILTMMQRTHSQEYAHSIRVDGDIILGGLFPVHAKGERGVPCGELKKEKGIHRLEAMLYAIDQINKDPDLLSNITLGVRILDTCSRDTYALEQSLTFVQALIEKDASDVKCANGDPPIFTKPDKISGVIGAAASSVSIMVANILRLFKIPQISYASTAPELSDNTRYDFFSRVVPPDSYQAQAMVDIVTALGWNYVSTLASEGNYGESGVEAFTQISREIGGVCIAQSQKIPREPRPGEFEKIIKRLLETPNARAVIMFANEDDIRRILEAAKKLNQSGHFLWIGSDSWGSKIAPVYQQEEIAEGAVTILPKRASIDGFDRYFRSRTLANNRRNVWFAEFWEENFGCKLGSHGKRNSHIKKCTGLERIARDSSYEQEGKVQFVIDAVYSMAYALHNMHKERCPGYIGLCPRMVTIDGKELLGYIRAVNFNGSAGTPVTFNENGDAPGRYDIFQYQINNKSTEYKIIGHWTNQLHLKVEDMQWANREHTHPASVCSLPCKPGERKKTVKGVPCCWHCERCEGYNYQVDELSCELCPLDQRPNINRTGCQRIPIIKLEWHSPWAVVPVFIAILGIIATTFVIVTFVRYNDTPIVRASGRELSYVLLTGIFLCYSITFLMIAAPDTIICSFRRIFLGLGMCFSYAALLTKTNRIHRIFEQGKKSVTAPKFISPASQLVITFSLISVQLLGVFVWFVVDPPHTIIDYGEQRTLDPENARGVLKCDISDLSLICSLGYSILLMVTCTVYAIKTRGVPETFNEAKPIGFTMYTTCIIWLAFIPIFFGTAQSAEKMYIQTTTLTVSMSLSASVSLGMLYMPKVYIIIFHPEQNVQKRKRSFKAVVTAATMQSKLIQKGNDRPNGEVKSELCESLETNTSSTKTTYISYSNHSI

In order of falling z-score:
1. O=S1(=O)NC(=NCc2ccco2)c2ccccc21  1.85
2. Cc1ccccc1NC(=O)c1c(Cl)nc(C)c(Cl)c1C  0.803
3. COc1ccccc1CCNCc1ccc(OC)c(OCc2ccccc2)c1  0.696
4. CCc1nnc(NC(=O)CSc2nc(-c3ccc(OC)cc3)ns2)s1  0.586
5. CCOC(=O)C1=C(C)N[C@@]2(O)c3ccccc3C(=O)[C@@]12O  0.275
6. Cc1cc(C(F)(F)F)nn1CC(=O)NNC(=S)NCC(C)C  0.275
7. COc1ccc(-c2nnc(CSc3nnc(-c4ccncc4)n3C3CCCCC3)o2)cc1OC  0.178
8. O=C(CC1NCCNC1=O)Nc1ccc2c(c1)OCCO2 (stereo not given)  0.114
9. Cc1ccc(N(C(=O)C2CCCC2)C2C=CS(=O)(=O)C2)cc1 (stereo not given)  0.0902
10. Cc1cccc(NC(=O)C23CCC(C)(C2Br)C3(C)C)c1 (stereo not given)  0.0793
11. CC(=O)NC(NC(=S)Nc1ccc(N=Nc2ccccc2)cc1)C(Cl)(Cl)Cl (stereo not given)  0.0756
12. COc1ccc(-n2c(-c3ccccc3)nc(=S)c3c2CCCC3)cc1  0.0477
13. O=C1CC(Nc2ccccc2)C(=O)N1Cc1ccccc1 (stereo not given)  0.0339
14. COC(=O)c1ccc(C)c(NC(=O)Cc2coc3cc(OC)ccc23)c1  0.022
15. Cc1ccc(N2C(=O)CC2(C#N)c2ccc(OCc3ccccc3)cc2)cc1 (stereo not given)  0.0189
16. Cc1c(NC(=O)/C(=C/c2cccs2)c2cccs2)c(=O)n(-c2ccccc2)n1C  0.0139
17. Cc1c(Cc2ccccc2)sc(/N=C/c2c(O)ccc3ccccc23)c1C(N)=O  0.0117
18. CN(CP(=O)(O)CN(C)S(C)(=O)=O)S(C)(=O)=O  0.00353
19. O=c1cc(N2CCN(Cc3ccccc3)CC2)[nH]c(=O)n1-c1ccc(Br)cc1  -0.00548
20. COc1ccc(C(C)C)cc1S(=O)(=O)n1ccnc1C  -0.0108
21. CCc1cc2c(=O)n(C(C)C(=O)OC3CCCCC3)cnc2s1 (stereo not given)  -0.0201
22. CS(=O)(=O)CCC(C(=O)OCc1ccc(Cl)cc1)N1C(=O)c2ccccc2C1=O (stereo not given)  -0.0233
23. CSCCC(NS(=O)(=O)c1ccc2c(c1)OCCO2)C(=O)NCCc1ccccn1 (stereo not given)  -0.0252
24. CCOC(=O)C1CCN(C(=S)Nc2cc(C)ccc2C)CC1  -0.0504
25. Cn1c(=O)c2c(nc(-n3ccnc3)n2C)n(C)c1=O  -0.0821
26. CC(C)(C)NC(=O)CCN(/N=C/c1ccc([N+](=O)[O-])o1)C1=NS(=O)(=O)c2ccccc21  -0.0846
27. COc1cc(C(=O)N2CCC(NC(=O)C(Cc3ccc(C(C)C)cc3)NC(C)=O)CC2)cc(OC)c1OC (stereo not given)  -0.0871
28. N#Cc1c(NCc2ccccc2)ccnc1NCc1cccnc1  -0.0947
29. Cc1c(-c2ccc(Cl)cc2)oc(=O)c2c(N)n(-c3ccccc3)nc12  -0.106
30. N#CC1=C(N2CCOCC2)/C(=C\c2ccccc2)CC1  -0.118
31. COc1ccc2c(c1)-c1ccccc1S(=O)(=O)N2C  -0.124
32. O=[N+]([O-])c1cccc(/C=N/Nc2nc(NCc3ccccc3)nc(N3CCOCC3)n2)c1  -0.129
33. CCOC(=O)CCC(NC(=O)c1cncc(O)c1)C(=O)OCC (stereo not given)  -0.145
34. CC(=O)Nc1nn(C)c2nc3cc(C)ccc3cc12  -0.147
35. COCCn1c(=NC(=O)/C=C/c2cccs2)sc2cc(NC(C)=O)ccc21  -0.149
36. CC(C)c1nnc(NC(=O)c2cnccn2)s1  -0.169
37. Cc1ccc(CN(c2ccc(C(=O)Nc3cccnc3)cc2)S(C)(=O)=O)cc1  -0.182
38. Cc1nc2c3cc(F)ccc3n(Cc3ccc(F)cc3)c2s1  -0.186
39. NC(=O)c1ccsc1NC(=O)C1CCCCC1  -0.188
40. CC(C)(C)OC(=O)C1C(=O)CC(C)(O)C(C(=O)OC(C)(C)C)C1c1ccco1 (stereo not given)  -0.19
41. O=S(=O)(c1ccc(C2CCCCC2)cc1)N1CCN(c2ncccn2)CC1  -0.202
42. C=CCn1c(-c2ccccc2OC)n[nH]c1=S  -0.222
43. Nc1nc(SCc2c(F)cccc2Cl)[nH]c(=O)c1-c1ccccc1  -0.234
44. Cc1cc(C)cc(NC(=O)CCc2nc3ccccc3[nH]2)c1  -0.237
45. O=C(NCCc1ccccc1)c1cccs1  -0.239
46. Cc1cccc(-c2nc3ccccc3c(=O)n2NC(=O)c2ccc([N+](=O)[O-])c(C)c2)c1  -0.254
47. C=C(Br)Cn1c(CC(C)C)nc2ccccc21  -0.262
48. O=c1c([N+](=O)[O-])c[nH]c2ccccc12  -0.277
49. Cc1occc1-c1nnc(SCC(=O)NC2CCCC2)n1-c1ccccc1  -0.296
50. Cc1ccc(NC(=O)CSc2nc(N)c3c4c(sc3n2)CSC(C)(C)C4)cc1  -0.299
51. CCCCS(=O)(=O)NC1=NCN(C2CCN(Cc3ccccc3)CC2)CN1  -0.312
52. Cc1csc(SCC(=O)NCCc2ccc(Cl)cc2)n1  -0.378
53. Cc1cc(C)n2nc(-c3ccsc3-n3c(C)ccc3C)cc2n1  -0.445
54. Cc1ccc(C2(O)CN(c3ccccc3)C3=[N+]2CCS3)cc1 (stereo not given)  -0.512
55. COc1cccc(-n2nnc3c(=O)n(C/C=C/c4ccccc4)cnc32)c1  -0.533
56. COc1ccc(NC(=O)Nc2ccc(F)cc2F)c(C)c1  -0.571
57. Cc1ccc(NC(=O)CSc2nc3c(cc2C#N)C(=O)CCC3)cc1S(=O)(=O)N(C)C  -0.571
58. CCN(c1ccc(NC(=O)CN2C(=O)NC3(CCOc4ccccc43)C2=O)cc1)C(C)C (stereo not given)  -0.636
59. CCCCn1c(CNC(=O)C23CC4CC(CC(C4)C2)C3)nnc1SC(C)CC (stereo not given)  -0.667
60. CC(=O)Oc1ccc(C(=O)O)cc1OC(C)=O  -0.673
61. COc1cc(NS(=O)(=O)c2ccc(N/C=C(\C#N)c3nc4cc(Cl)ccc4o3)cc2)nc(OC)n1  -0.686
62. O=c1c2c(-c3ccco3)csc2nc(SCc2cn3cccnc3n2)n1-c1ccccc1  -0.753
63. CC(C)NC(=O)CCS(=O)(=O)c1ccc(Br)s1  -0.895
64. Cc1cccc(N2C(=O)CN(Cc3sccc3C)C2=S)c1  -1.09
65. CCCn1nc(C(=O)NC2CCCc3ccccc32)c2ccccc2c1=O (stereo not given)  -1.21
66. C/C(=N\Nc1nc2ccccc2[nH]1)c1ccc(Cl)s1  -1.3
67. COc1cc(C(=O)Nc2ccc(Br)cc2C(=O)c2cc(OC)c(OC)c(OC)c2)cc(OC)c1OC  -1.48
68. CC1CCc2nn(CC(=O)Nc3ccc(F)cc3F)cc2C1 (stereo not given)  -1.66
69. CCC(C)NC(=O)C1CCC(=O)N(c2ccc3c(c2)OCO3)C1c1ccc(OC)cc1 (stereo not given)  -1.82

For `OCCCN=c1cc(-c2ccccc2)oc2ccc(Cl)cc12`, the z-score was active: 3.32.
